From PubChem BioAssay AID463173 (ICCB-Longwood Screening Facility, Harvard Medical School, 2010)
In all, about 52,000 compounds went through this assay and about 4,300 (8.3%) were called active. No stated cut-off is given here; in the data, active means survival mostly below about 52% (no sharp cut-off); inactive means mostly above about 56%. The list shows a part of the results.

The molecules below were run on DeltatarO mutant (assay: S. aureus survival, RN4220 and DeltatarO strains – OD600, teichoic acid synthesis inhibitors, primary screen (AID 463173)). Conditions: S. aureus RN4220 wild type/DeltatarO growth, OD600, 18 h, stronger effect = lower value, screened at 18.75 µg/mL (by protocol).

Structure (SMILES) | survival
COc1ccc(-c2nnc(SCC(=O)NCCc3ccc(OC)c(OC)c3)nc2-c2ccc(OC)cc2)cc1 | inactive: 86%
Cc1nc2cccnc2n1-c1cccc(C(=O)N2CCN(c3cccc(Cl)c3)CC2)c1 | inactive: 73%
Cc1ccc(C)c(N2CCN(S(=O)(=O)c3cc(-c4cc(C)no4)ccc3C)CC2)c1 | inactive: 83%
Cc1ccc(-c2nnc(Nc3cccc(Cl)c3)c3ccccc23)cc1S(=O)(=O)N1CCCCC1 | inactive: 65%
Cc1ccc(-n2nc(CO)c(C(=O)NCCCCc3ccccc3)n2)cc1C | inactive: 113%
CSc1ccc(CCNC(=O)c2cc(C)nc3c2c(C)nn3-c2ccccc2)cc1 | inactive: 122%
COc1ccccc1C(=O)NCCn1cc(SCC(=O)Nc2ccccc2F)c2ccccc21 | inactive: 55%
COc1ccc(CCNC(=O)C(=O)Nc2ccccc2F)cc1 | inactive: 67%
Cc1ccc(CNC(=O)C(=O)Nc2c3c(nn2-c2ccccc2)CSC3)cc1 | inactive: 71%
C=CCN(CC=C)C(=O)c1ccc(SC)cc1OC | inactive: 98%
CCOC(=O)c1[nH]c(C)c(CCC(=O)N2CCN(c3cccc(OC)c3)CC2)c1C | inactive: 96%
CCCCN(CC)C(=O)CSc1nc2n[nH]c(C)c2c(=N)n1-c1cccc(Cl)c1 | active: 17%
CC1CN(C(=O)c2cc3n(n2)C(C(F)(F)F)CC(c2ccco2)N3)CC(C)O1 (stereo not drawn) | inactive: 83%
Cc1ccc(-c2noc(-c3ccccc3NC(=O)c3ccccc3)n2)cc1 | inactive: 69%
CCC(=O)N1CCc2cc(Br)cc(S(=O)(=O)CCC(=O)NCc3ccccc3OC)c21 | inactive: 66%
Cc1ccc(NC(=O)Cc2ccc(-n3c(C)nc4cccnc43)cc2)c(Cl)c1 | inactive: 107%
CCOc1ccc(NC(=O)Cn2ncc3c2-c2cc(C)ccc2OC3)cc1 | inactive: 73%
CCc1ccc(NC(=O)N2CCOc3ccc(Cl)cc32)cc1 | inactive: 65%
COC(=O)c1ccc(NC(=O)CC2C(=O)N(c3cccc(OC)c3)C(=O)N2Cc2cccs2)cc1 (stereo not drawn) | inactive: 91%
Cc1ccc(-c2nc(NC(=O)CSc3cc(C)c4ccccc4n3)ns2)cc1 | inactive: 65%
Cc1cc(C)c(NC(=O)c2cc(S(=O)(=O)N3CCC4(CC3)OCCO4)ccc2F)c(C)c1 | inactive: 77%
O=C(NCc1ccccc1)c1ccc(CNS(=O)(=O)c2ccc(Br)cc2)cc1 | inactive: 80%

Structure (SMILES) | survival
COc1ccccc1CNS(=O)(=O)c1ccc2c(c1)CC(C)N2C(C)=O (stereo not drawn) | inactive: 71%
O=C(Cc1cccs1)NCCCc1ccccc1 | inactive: 106%
CC1CCN(S(=O)(=O)c2ccc3c(c2)N(CC(=O)NC(C)c2ccccc2)C(=O)CS3)CC1 (stereo not drawn) | inactive: 74%
CC(C)Cn1cc(NC(=O)N2CCN(c3cccc(Cl)c3)CC2)c2ccccc2c1=O | inactive: 85%
CCc1cccc(C)c1NS(=O)(=O)c1c(C(=O)N2CCC(C)CC2)c(C)n(C)c1C | inactive: 81%
Cc1cc(Cl)ccc1OCC(=O)N=Nc1c(O)[nH]c(=O)[nH]c1=O | inactive: 88%
CCS(=O)(=O)n1nc(-c2ccco2)nc1N | inactive: 108%
CCN(CCCNC(=O)Cn1ncc2c3ccccc3n(C)c2c1=O)Cc1ccccc1 | inactive: 92%
CCCSc1ncc(Cl)c(C(=O)Nc2ccc(S(=O)(=O)N(C)c3ccccc3)cc2)n1 | inactive: 54%
COC(=O)c1ccc(C2c3c(-c4ccccc4O)n[nH]c3C(=O)N2Cc2cccnc2)cc1 (stereo not drawn) | inactive: 72%
COc1ccc(Cn2c(C(=O)O)c(CNCc3ccccc3F)c3ccc(OC)cc32)cc1 | inactive: 70%
CC1CCCN(C(=O)CSc2c3c(nc4cc(Cl)ccc24)CCCC3)C1 (stereo not drawn) | active: -5%
O=C(Nc1cc(-c2nc3cc(Cl)ccc3o2)ccc1Cl)c1ccco1 | active: 41%
COc1cccc(C2C(C(=O)Nc3ccc(C)cc3C)=C(C)Nc3c(C(=O)Nc4ccccc4)cnn32)c1 (stereo not drawn) | inactive: 88%
O=C(Nc1nnc(S(=O)(=O)N2CCCc3ccccc32)s1)c1cccc(Cl)c1 | active: 3%
CCc1ccc(NC(=O)CSc2nc(=O)n(Cc3ccccn3)c3c2CCC3)cc1 | inactive: 95%
Clc1cccc(-c2ccc(CNCCSc3nnnn3-c3ccccc3)o2)c1 | active: 30%
O=C(c1ccccc1)N1CCN(CCc2ccncc2)CC1 | inactive: 90%
Cc1ccc2cc(C#N)c(SCC(=O)Nc3ccccc3)nc2c1 | inactive: 66%
CC(=O)c1ccc(NC(=O)c2nc3ccccc3nc2N2CCCCC2)cc1 | inactive: 95%
COc1ccc(S(=O)(=O)Nc2cccc(-c3ccc(N4CCCC4)nn3)c2)c(OC)c1 | inactive: 92%
COc1ccc(OC)c(NS(=O)(=O)c2ccc3c(c2)C(C)(C)C(=O)N3C)c1 | active: 48%

Structure (SMILES) | survival
COc1cc(Cl)c(C)cc1NC(=O)C1CCN(c2nc3ccccc3n3cccc23)CC1 | inactive: 56%
Cc1ccc(C)c(NC(=O)N2CCN(C(=O)c3nsc4ccccc34)CC2)c1 | inactive: 89%
COc1cccc(CNC(=O)c2ccc3c(c2)c(C)c(C)n3Cc2ccccc2)c1 | inactive: 90%
COc1ccc(CNC(=O)c2cc3cc4cc(OC)ccc4nc3o2)cc1 | inactive: 81%
Cc1nnc(N2CCC(C(=O)NC3CCCCC3)CC2)c2nn(-c3ccccc3)c(C)c12 | inactive: 82%
NC(=O)C1CCN(C(=O)c2ccc(NC(=O)c3nsc4ccccc34)cc2)CC1 | inactive: 86%
CCOc1ccccc1N(CC)C(=O)Cn1ncc2c([nH]c3ccccc32)c1=O | active: 46%
CCOc1ccc(CCNC(=O)c2cnc3c(-c4ccc(F)cc4)c(C)nn3c2C)cc1OCC | inactive: 134%
Cc1ccc(NC(=O)Cn2c(=O)n(Cc3ccco3)c(=O)c3sc4ccccc4c32)cc1C | inactive: 133%
COc1ccc2c(c1)sc1ncc(C(=O)NCc3ccc(OC(C)C)cc3)c(=O)n12 | inactive: 77%
O=C(NCCc1ccc(Cl)cc1)c1cnc2sc(N3CCCCC3)nn2c1=O | inactive: 101%
COc1ccc(-c2cc(C(F)(F)F)nc(SCCC(=O)Nc3cc(C)ccc3O)n2)cc1 | inactive: 54%
COC(=O)CNC(=O)c1c(-c2ccccc2)noc1C | inactive: 104%
CC(C)C(=O)Nc1cccc(S(=O)(=O)c2cccc(NC(=O)C(C)C)c2)c1 | inactive: 75%
CCc1ccc(-c2[nH]c3c(c2-c2sc(C)c(C(=O)OC)c2O)c(=O)[nH]c(=O)n3C)cc1 | active: 23%
CCOc1ccc(CCNC(c2cccc(Cl)c2)c2nnc(-c3ccccc3)o2)cc1OCC (stereo not drawn) | inactive: 95%
Cc1coc2c(C)c3oc(=O)c(CCC(=O)NCCc4ccccc4)c(C)c3cc12 | inactive: 59%
Cc1nn(C(=O)c2ccc(Br)cc2)c(C)c1S(=O)(=O)N1CCOCC1 | inactive: 79%
COc1cccc(/C=C/c2nc(C#N)c(NCCc3ccc(OC)c(OC)c3)o2)c1 | active: 41%
Cn1c(NCCO)nc2c1c(=O)n(Cc1cccc(F)c1)c(=O)n2C | inactive: 70%
CCCCN1C(=O)C(O)(c2c[nH]c3ccccc23)c2cc(Br)ccc21 (stereo not drawn) | inactive: 50%
CCCCN(CCCC)S(=O)(=O)c1ccc2oc(C(=O)NCc3ccc(C)cc3)c(C)c2c1 | inactive: 83%

Structure (SMILES) | survival
CCn1c(=O)c(C(=O)Nc2ccc(C(C)=O)cc2)nc2ccccc21 | inactive: 81%
COc1cc(NC(=O)c2cccc3c2C(=O)N(C2CCCCC2)C3)cc(OC)c1 | inactive: 90%
O=C(Cn1c(=O)oc2ccccc21)Nc1ccc(C(=O)O)cc1 | inactive: 76%
CCOc1ccccc1NC(=O)CSc1nc2cc(OC)c(OC)cc2c2nc(-c3ccccc3)nn12 | inactive: 69%
CCCC(C(=O)NC1CCCC1)N(C(=O)Cn1nnc(-c2ccc(C)o2)n1)c1ccccc1 (stereo not drawn) | inactive: 89%
Oc1c(C(c2ccc(Cl)cc2)N2CCC3(CC2)OCCO3)sc2nc(-c3ccco3)nn12 (stereo not drawn) | active: 32%
O=C1CN=C(Nc2ccccc2)N1c1ccccc1 | inactive: 100%
COC(=O)c1sc(NC(=O)c2ccco2)c(C#N)c1C | inactive: 82%
O=C(NC1CCCCC1)C(c1ccccn1)N(C(=O)Cn1nnc(-c2ccccc2)n1)c1ccc2c(c1)OCO2 (stereo not drawn) | inactive: 98%
CC1CCCCN1S(=O)(=O)c1ccc(C(=O)Nc2sc3c(c2C(N)=O)CC(C)(C)NC3(C)C)cc1 (stereo not drawn) | inactive: 67%
Cc1ccc(NC(=O)CCS(=O)(=O)c2cccc3nonc23)cc1Cl | inactive: 71%
Cc1ccccc1Nc1c(-c2ccco2)nc2c(C)cccn12 | active: 25%
Cc1n[nH]c(C)c1S(=O)(=O)N(CC(=O)Nc1ccc(C(F)(F)F)cc1)c1ccc(C(C)C)cc1 | active: 46%
Cc1ccc(CS(=O)(=O)c2ncc(Cl)c(C(=O)Nc3nc4ccc(C)cc4s3)n2)cc1 | active: 6%
NCCS(=O)(=O)N1CCCC1 | inactive: 88%
Cc1ccc(C)c(CN2C(=O)c3ccccc3S(=O)(=O)c3ccc(C(=O)N4CCN(c5ccccc5)CC4)cc32)c1 | inactive: 79%
C#CCSc1nc2sc3c(c2c(=O)n1Cc1ccccc1)CCCC3 | active: 33%
CCOCCc1nn2c(=O)cc(COC(=O)c3ccccc3NC(=O)C3CCCCC3)nc2s1 | inactive: 102%
O=C(NCCn1cc(SCc2ccc(Cl)cc2)c2ccccc21)c1cccs1 | inactive: 62%
COc1cccc(-c2nc(SCC(=O)Nc3ccc4c(c3)OCCO4)c(-c3ccccc3)[nH]2)c1 | inactive: 54%
COc1cc(OC)c(N(C)C(=O)CCNC(=O)Cn2cnc3ccccc3c2=O)cc1Cl | inactive: 70%
CCN(CC)C(=O)C1CCN(Cc2ccccc2F)CC1 | inactive: 99%
